Molecules are shown by their SMILES. Screen size: about 52,000 compounds; about 1,700 (3.3%) were called active. No stated cut-off is given here; in the data, active means survival mostly below about 52% (no sharp cut-off); inactive means mostly above about 56%. This is one part of the list.

This test deals with Wild type. Kind of test: growth inhibition of S. aureus wild type versus tarO mutant, primary screen, teichoic acid synthesis inhibitors, RN4220, OD600 (AID 463173). The following applies: S. aureus RN4220 wild type/DeltatarO growth, OD600, 18 h, stronger effect = lower value, screened at 18.75 µg/mL (by protocol).
Consider `CCOC(=O)c1ccc(N2C(=O)c3n[nH]c(-c4cccs4)c3C2c2ccc(C(C)C)cc2)cc1` (stereo not drawn), for which the survival is inactive: 92%.

`O=c1cc(-c2ccccc2)c2cc(Cl)c3c(c2o1)CN(Cc1ccccc1)CO3`: the survival was inactive: 74%. As for `COc1ccc(CC(=O)NCc2ccc3c(c2)CCN3C(=O)c2ccc(Cl)cc2)cc1OC`, the figure is inactive: 93%; as for `Cc1ccc2c(c1)c1c(c(=O)n(-c3ccccc3C)c(=O)n1CC(=O)NCc1ccccc1)n2C`, inactive: 74%. The result for `CCc1cc2ccccc2nc1SCC(=O)N1CCCC1` reads inactive: 101%; that for `Cc1ccc(OCCCn2c(CCNC(=O)C3CCCCC3)nc3ccccc32)c(C)c1`, inactive: 95%; that for `COC(=O)c1ccc(NCC(=O)c2ccccc2)cc1`, inactive: 50%. As for `CCOC(=O)c1c(Oc2ccc(OC)cc2)nnc(-c2ccccc2)c1-c1ccccc1`, the survival is inactive: 91%. As for `Cc1cc(-c2ccc(C)c(S(=O)(=O)N(C)c3ccc(C)c(C)c3)c2)on1`, the figure is inactive: 68%.

On to `COc1ccccc1NC(=O)Cn1c(=O)n(Cc2ccco2)c(=O)c2cccnc21`, for which the survival was inactive: 66%. The result for `O=S(=O)(c1ccccc1)N(c1cccnc1)S(=O)(=O)c1ccccc1` reads inactive: 103%.

Take `COc1ccc(OC)c(NC(=O)CN2C(=O)c3ccccc3Sc3ccc(C(=O)N4CCCC4)cc32)c1`: the survival was inactive: 129%. As for `COc1ccc(N(Cc2cccs2)C(=O)Nc2ccccc2)cc1`, the figure is inactive: 82%; as for `COc1ccc(-c2ccc(CNc3ccc4[nH]c(=O)[nH]c4c3)o2)cc1Cl`, inactive: 89%; as for `Cc1nn(CC(=O)NC2CCCCC2)c(=O)c2cc3cc(F)ccc3n12`, inactive: 80%. The result for `CCc1ccc(Oc2nc3c(C)cccn3c(=O)c2/C=C(\C#N)c2nc3ccccc3[nH]2)cc1` reads inactive: 74%. `Cc1ccc(-n2nc(C)c3c(C)cc(=O)n(CC(=O)Nc4ccc(Br)cc4F)c32)cc1`: the survival is inactive: 135%. The result for `COc1ccc(S(=O)(=O)c2c(Nc3ccc(C)cc3)sc(C(=O)c3ccc(C)cc3)c2N)cc1` reads inactive: 119%; that for `Cc1cc(=O)n2[nH]c(NCc3ccc(F)cc3)nc2n1`, inactive: 111%.

Turning to `Cc1cccc(C(=O)NCC(c2ccc3c(c2)OCO3)N2CCN(c3ccccc3F)CC2)c1` (stereo not drawn), the survival is inactive: 70%. As for `COc1cc(-c2noc(CSc3nc(-c4ccccc4)cc(=O)[nH]3)n2)cc(OC)c1OC`, the figure is inactive: 59%; as for `COc1ccc(NC(=O)c2sc3nc4c(cc3c2N)CN(C(C)C)CC4)c(OC)c1`, inactive: 86%; as for `Cc1ccc(Cl)cc1NC(=O)Nc1c(C)n(C)n(-c2ccccc2)c1=O`, inactive: 133%. The result for `Cc1csc(NC(=O)c2c(O)c3cccc4c3n(c2=O)CCC4)n1` reads inactive: 113%; that for `CCOC(=O)CSc1nc2ccc(NC(=O)c3ccc(F)cc3)cc2s1`, inactive: 88%; that for `O=C(CCCn1c(=O)c2cccn2c2ccc(F)cc21)NCCc1ccccc1`, inactive: 55%. With `CCC(=O)NC1CCNCC1`, the survival is inactive: 127%. As for `O=C1COc2ccccc2N1Cc1ccc(OC(F)(F)F)cc1`, the survival is inactive: 110%. Turning to `NN(CCC(=O)N1CCCCC1)C1=NS(=O)(=O)c2ccccc21`, the survival is inactive: 101%. As for `COc1ccc(N/C=C\C(=O)c2ccc3c(c2)OCO3)cc1`, the figure is inactive: 108%; as for `COc1ccc(-c2noc(-c3ccc(NCc4ccco4)c([N+](=O)[O-])c3)n2)cc1`, inactive: 82%; as for `COc1ccc(NC(=O)Cn2cc(S(=O)(=O)c3ccc(C)cc3)c(=O)c3ccccc32)cc1OC`, inactive: 96%.

Regarding `Cc1ccc(CSCC(=O)NCc2ccc(F)cc2)cc1`, the survival was inactive: 90%. As for `CCOc1ccccc1Nc1nc(-c2cccc(Cl)c2)c2c(n1)-c1ccccc1OC2`, the figure is inactive: 83%; as for `CCc1nnc(SCC(=O)N(C)c2ccccc2)c2cc3sccc3n12`, inactive: 66%.

For the compound `Cc1cccc(N2C(=O)CS/C2=N/NC(=O)c2cccc(Cl)c2)c1`, the survival was inactive: 115%. The result for `CCOC(=O)c1cccc(NC(=O)CCc2c(C)nc3cc(-c4ccc(Cl)cc4)nn3c2C)c1` reads inactive: 73%; that for `CCCn1c(=O)n(-c2cc(Cl)c(OC)cc2OC)c(=O)c2c3c(sc21)CN(C(C)=O)CC3`, inactive: 64%; that for `Cc1cc(C)c(Cn2c(CCNC(=O)c3ccco3)nc3ccccc32)c(C)c1`, inactive: 92%. The result for `CCC(Sc1nccn1C)C(=O)Nc1cc(C)on1` (stereo not drawn) reads inactive: 110%; that for `CCn1cc(CCC(=O)NCc2ccc(F)cc2)c2ccccc21`, inactive: 77%; that for `Cc1ccc([C@H]2Nc3ccc(S(=O)(=O)Nc4cccc(Cl)c4C)cc3[C@H]3C=CC[C@H]32)cc1`, inactive: 71%. The result for `CCCCNS(=O)(=O)c1ccc(N)cc1` reads inactive: 104%; that for `Cc1ccc(Nc2nnc(-c3ccc(C)c(S(=O)(=O)N4CCN(C)CC4)c3)c3ccccc23)c(C)c1`, inactive: 93%.

For the compound `S=c1nc(Cc2cccs2)[nH]c2ccccc12`, the survival was inactive: 117%. Turning to `CCOc1ccccc1CNC(=O)C1CCN(C2=NS(=O)(=O)C(c3ccc(C)c(C)c3)=C2C)CC1`, the survival is inactive: 82%. For the compound `CC1CC(C)CN(C(=S)Nc2ccccc2)C1` (stereo not drawn), the survival is inactive: 125%. The result for `CCCN(C(=O)c1nn(-c2ccc(OC)c(Cl)c2)c(=O)c2c1c1ccccc1n2C)c1ccccc1F` reads inactive: 74%; that for `Cc1ccccc1C(=O)NC1CCN(CC(=O)N2CCCCC2C)CC1` (stereo not drawn), inactive: 98%; that for `COc1ccc(NC(=O)c2ccc3c(=O)n4nc(Nc5cc(C)ccc5C)sc4nc3c2)cc1`, inactive: 136%. As for `COc1ccc(OC)c(NC(=O)Cn2cnc3sc(C)c(S(=O)(=O)N4CCN(c5ccccc5OC)CC4)c3c2=O)c1`, the figure is inactive: 80%.

For the compound `Cc1ccc(-c2cnc(NC(=O)CCC(=O)N3CCCCC3)n2C)cc1`, the survival is inactive: 110%. Turning to `COc1ccc(C(=O)N2CCC(c3nc4ccccc4o3)CC2)cc1`, the survival was inactive: 81%.

On to `CCOc1ccc(C(=O)NCCc2csc(-c3ccc(C(F)(F)F)cc3)n2)cc1OCC`, for which the survival was inactive: 73%.

As for `COc1cccc(C(C(=O)NCc2ccco2)N(C(=O)Cn2nnc3ccccc32)C2CC2)c1OC` (stereo not drawn), the survival was inactive: 114%. `CC(C)C(=O)Nc1cccc(C(=O)NCc2ccc3c(c2)OCO3)c1`: the survival was inactive: 103%. As to `COc1ccc(S(=O)(=O)c2c(Nc3ccc(F)cc3)sc(C(=O)c3ccc(C)cc3C)c2N)cc1`, the survival was inactive: 124%. As for `c1ccc(Cc2nnc(SCc3nc(-c4cccs4)no3)n2-c2ccccc2)cc1`, the figure is inactive: 77%. As for `Cc1ccccc1N1CCN(S(=O)(=O)c2nnc(NC(=O)c3ccccc3)s2)CC1`, the figure is inactive: 48%; as for `COc1ccc(C(=O)Nc2cc(C(C)C)c(O)c(S(=O)(=O)c3ccc(OC)cc3)c2C)cc1`, inactive: 81%; as for `CC(C)c1ccc2oc(-c3cc(NC(=O)c4cccs4)ccc3Cl)nc2c1`, active: 7%. Take `COc1cccc(NC(=O)c2sc3nc(C)c(C(=O)Nc4ccc(C)cc4C)c(-c4sccc4C)c3c2N)c1`: the survival is inactive: 90%. The result for `O=c1c2oc3ccccc3c2n(Cc2cccc(F)c2)c(=O)n1Cc1ccco1` reads inactive: 62%; that for `COc1ccccc1NC(=O)CCn1cnc2ccccc2c1=O`, inactive: 76%; that for `Cc1cccc(C)c1NC(=O)C(C)Sc1n[nH]c(-c2ccncc2)n1` (stereo not drawn), inactive: 116%. The result for `Cc1ccc(Cl)cc1N1CCN(C(=O)C2CCCN(S(=O)(=O)c3ccc(Br)s3)C2)CC1` (stereo not drawn) reads inactive: 132%; that for `CCOc1ccc(NC(=O)CSc2nccn2-c2cccc(C)c2C)cc1`, inactive: 146%; that for `CC(=O)N1CCCc2cc(S(=O)(=O)N3CCCCC3)ccc21`, inactive: 60%. As for `CCOc1ccccc1CNC(=O)c1cc2c(=O)n(Cc3ccccc3)ccc2nc1C`, the figure is inactive: 138%. Turning to `CN(C(=O)c1cc2c(=O)oc3ccccc3c2s1)c1ccc(F)cc1`, the survival is inactive: 80%.

As to `Cc1ccc2nc(-c3ccc(Cl)c(NC(=O)c4cccnc4)c3)oc2c1`, the survival is inactive: 139%. `CC1=NN(c2ccccc2)C(=O)C1C(=O)O` (stereo not drawn): the survival is inactive: 104%.

As to `COc1ccc(S(=O)(=O)N2C3CCC2CC(NC(=O)C2CC2)C3)cc1` (stereo not drawn), the survival was inactive: 106%. As for `CCCCn1c2ccc(F)cc2c2nnc(SCCN3CCCCC3)nc21`, the figure is inactive: 139%; as for `Cc1ccc(OCC(=O)NCC(=O)OCc2cc(=O)n3nc(C)sc3n2)cc1`, inactive: 97%. As for `CCOC(=O)C1CCN(S(=O)(=O)c2cc(-c3onc(C)c3C)ccc2OC)CC1`, the figure is inactive: 60%; as for `O=S(=O)(NCC(c1ccco1)S(=O)(=O)c1cccs1)c1ccc(F)c(C(F)(F)F)c1` (stereo not drawn), inactive: 32%. As to `Cc1ccc(CNC(=O)c2nc(SCc3ccc(C)cc3)ncc2Cl)cc1`, the survival is inactive: 116%. For `COc1ccc(CCNC(=O)CSc2ncc3c(n2)-c2cc(Cl)ccc2N(Cc2ccccc2)S3(=O)=O)cc1OC`, the survival is inactive: 79%. Turning to `CCc1ccccc1NC(=O)Cn1c(=O)c2cccn2c2ccc(F)cc21`, the survival is inactive: 103%.

Regarding `CC(C)c1ccc(NC(=O)CSC2=Nc3ccccc3C3=NC(CC(=O)NCc4ccc(F)cc4)C(=O)N23)cc1` (stereo not drawn), the survival was inactive: 73%.

For `COc1ccc(CNC(=O)c2ccc3c(c2)N(Cc2cccc(Cl)c2)C(=O)c2ccccc2S3)c(OC)c1`, the survival is inactive: 84%. The result for `COCCCNC(=O)CCn1c(=O)c2ccccc2n(CC(=O)Nc2c(C)cc(C)cc2C)c1=O` reads inactive: 84%. The result for `CC1CN(S(=O)(=O)c2cccs2)C(C)CN1S(=O)(=O)c1cccs1` (stereo not drawn) reads inactive: 92%. Turning to `CC(C)c1ccc(OC(=O)c2cc(-c3ccc4c(c3)OCCO4)on2)cc1`, the survival is inactive: 46%.

Turning to `Cc1ccc(-n2c(=O)c3cccnc3n2CC(=O)Nc2cccc(C)c2C)cc1`, the survival was inactive: 140%.

For the compound `Cc1cccn2c(Nc3ccccc3)c(-c3ccc(N4CCOCC4)cc3)nc12`, the survival was inactive: 125%. The result for `CCOc1ccc(C(=O)Nc2nnc(SCc3cc(=O)c4cc(C)ccc4[nH]3)s2)cc1` reads inactive: 77%.
